According to the supplement of paper PMC10600219:
Structures can show the parent of a compound that is named as a salt. Over roughly 2,800 compounds, “cell viability relative to vehicle” has its median near 1.1; the lowest 2% begin near 0.19. The list shows a part of the results.

Test system: NCI-H2228 parental
Experiment: cell viability relative to vehicle (fraction of vehicle); NCI-H2228 is an ALK-positive lung cancer line and DTP means drug-tolerant persister; higher = less growth inhibition
Conditions: 100 nM; treatment time 6 days
Procedure, shortened: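 Drug-tolerant persister NCI-H2228 cells, produced by 13 days in 1000 nM of a targeted drug, and their parental counterparts were seeded into 384-well plates and, the following day, given the 3114-agent TargetMol anti-cancer compound library at 100 nM or DMSO vehicle. After 6 days, the CellTiter-Glo 3D Cell Viability Assay was used to read ATP. Each entry reports viability compared with vehicle-treated cells.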

| Structure (SMILES) | cell viability |
| --- | --- |
| C[C@H]1COC2=C1C(=O)C(=O)c1c2ccc2c1CCCC2(C)C [Cryptotanshinone] | 0.906 |
| NC(=O)Cc1cccc(C(=O)c2ccccc2)c1N [Nepafenac] | 1.14 |
| CCCCC1=NC2(CCCC2)C(=O)N1Cc1ccc(-c2ccccc2-c2nnn[nH]2)cc1 [Irbesartan] | 0.998 |
| O=C(Nc1cc(C(F)(F)F)ccc1O)Nc1cc(C(F)(F)F)ccc1O | 1.03 |
| O=C1N[C@@H](Cc2c[nH]c3ccccc23)C(=O)N2CCC[C@@H]12 [Brevianamide F] | 1.05 |
| NC(=O)c1ncn([C@@H]2O[C@H](CO)[C@@H](O)[C@H]2O)n1 [Ribavirin] | 1.21 |
| O=C(NCc1ccncc1)C12CC3CC(C1)CC(c1ccc(Cl)cc1)(C3)C2 | 1.05 |
| CCOC(=O)[C@H](CCc1ccccc1)N[C@@H](C)C(=O)N1[C@H](C(=O)O)C[C@@H]2CCC[C@@H]21 [Ramipril] | 1.06 |
| CCOc1ccc2c(c1)C(C)=CC(C)(C)N2 [Ethoxyquin] | 1.12 |
| Cc1ccc(S(=O)(=O)n2c(N)nc3ccccc32)cc1 | 1.06 |
| CNC(=O)c1ccc(-c2cnc3ncc(Cc4ccc5ncccc5c4)n3n2)cc1F [Capmatinib 2HCl] | 1 |
| CNC(=O)c1ccc(-c2cnc3ncc(Cc4ccc5ncccc5c4)n3n2)cc1F [Capmatinib] | 1.05 |
| NCC(=O)Nc1ccc(-n2nc(C(F)(F)F)cc2-c2ccc3c(ccc4ccccc43)c2)cc1 | 0.937 |
| COc1ccc(-c2nc3cc(C4=NNC(=O)CC4C)ccc3[nH]2)cc1 (centres undefined) [Pimobendan] | 1.12 |
| COc1ccc(-c2cnc3c(-c4cccc5ncccc45)cnn3c2)cc1 | 1.04 |
| NS(=O)(=O)c1cc2c(cc1Cl)N=CNS2(=O)=O [Chlorothiazide] | 1.17 |
| CNS(=O)(=O)Cc1ccc2[nH]cc(CCN(C)C)c2c1 [Sumatriptan succinate] | 0.997 |
| O=c1c(O)c(-c2ccc(O)c(O)c2)oc2cc(O)ccc12 [Fisetin] | 1.08 |
| O=C(COc1ccc(Cl)cc1)NC1CCC(NC(=O)COc2ccc(Cl)cc2)CC1 (centres undefined) | 1.18 |
| O=C(COc1ccc(Cl)cc1)NC1CCC(NC(=O)COc2ccc(Cl)cc2)CC1 (stereo not drawn) [ISRIB (trans-isomer)] | 1.11 |
| COc1cc2ncnc(Oc3cccc(NC(=O)Nc4cc(C(C)(C)C(F)(F)F)on4)c3)c2cc1OC | 1.28 |
| CCc1cc2c(=O)c(-c3nc4ccccc4s3)coc2c(CN2CCCCC2)c1O | 1.06 |
| Cc1cc(C2CCCCC2)n(O)c(=O)c1 [Ciclopirox] | 1.35 |
| O=C(O)c1ccc2c(c1)C(=O)c1ccccc1C2=O | 0.972 |
| O=C(O)CCc1ccc(O)cc1O [Hydroumbellic acid] | 1.06 |

| Structure (SMILES) | cell viability |
| --- | --- |
| CNC(=O)c1ccccc1Nc1nc(Nc2ccc3c(c2OC)CCC[C@H](N2CCN(CCO)CC2)C3)ncc1Cl | 0.607 |
| CCc1cncnc1N1CCN(Cc2nc3ccc(C(F)(F)F)cc3[nH]2)CC1 | 1.06 |
| COc1ccc2ccc(=O)oc2c1 [Herniarin] | 1.1 |
| CCOc1cc([C@@H](CS(C)(=O)=O)N2C(=O)c3cccc(NC(C)=O)c3C2=O)ccc1OC [Apremilast] | 1.12 |
| COc1cc(/C=C/C(=O)OC[C@H]2O[C@H](O[C@]3(CO)O[C@H](CO)[C@@H](O)[C@@H]3OC(=O)/C=C/c3cc(OC)c(O)c(OC)c3)[C@H](O)[C@@H](O)[C@@H]2O)cc(OC)c1O [3,6'-Disinapoyl sucrose] | 0.963 |
| O=C(Nc1cccc(-c2ccccc2)c1)OC1CCCCC1 | 1.01 |
| CC(C)=CCC[C@](C)(O[C@@H]1O[C@H](CO)[C@@H](O)[C@H](O)[C@H]1O)[C@H]1CC[C@]2(C)[C@@H]1[C@H](O)C[C@@H]1[C@@]3(C)CC[C@H](O[C@@H]4O[C@H](CO)[C@@H](O)[C@H](O)[C@H]4O)C(C)(C)[C@@H]3CC[C@]12C [Ginsenoside F2] | 1.03 |
| CCCCCCCCCCCCCCCC(=O)NCCO [Palmidrol] | 1.01 |
| CO[C@@H](C(=O)N1Cc2[nH]nc(NC(=O)c3ccc(N4CCN(C)CC4)cc3)c2C1)c1ccccc1 [Danusertib] | 0.841 |
| Cc1c(Cc2ccc3ccccc3n2)c2cc(F)ccc2n1CC(=O)O [Timapiprant] | 0.96 |
| C=CC(=O)N1CCC(Oc2cc3c(Nc4ccc(Cl)c(Cl)c4F)ncnc3cc2OC)CC1 [Poziotinib] | 0.975 |
| C[C@H](NC(=O)CNC(=O)c1cccc(Cl)c1)c1ccccc1 | 1.09 |
| Cc1cc(=O)n(-c2ccccc2)n1C [Antipyrine] | 1.07 |
| COc1c(O[C@@H]2O[C@H](CO)[C@@H](O)[C@H](O)[C@H]2O)cc2occ(-c3ccc(O)cc3)c(=O)c2c1O [Tectoridin] | 1.11 |
| Clc1ccc(COC(Cn2ccnc2)c2ccc(Cl)cc2Cl)c(Cl)c1 (centres undefined) [Miconazole] | 1.12 |
| Cn1ncc(Cl)c1-c1cc(C(=O)N[C@H](CN)Cc2cccc(F)c2)sc1Cl [Afuresertib] | 0.718 |
| O=C(O)c1cc(O)c2c(c1)[C@@H]([C@H]1c3cc(C(=O)O)cc(O)c3C(=O)c3c(O[C@@H]4O[C@H](CO)[C@@H](O)[C@H](O)[C@H]4O)cccc31)c1cccc(O[C@@H]3O[C@H](CO)[C@@H](O)[C@H](O)[C@H]3O)c1C2=O [Sennoside B] | 1.11 |
| Cc1ccc(-c2ncc(Cl)cc2-c2ccc(S(C)(=O)=O)cc2)cn1 [Etoricoxib] | 1.13 |
| CC(C)=CC(=O)O[C@H]1Cc2cc3ccc(=O)oc3cc2OC1(C)C [Decursin] | 1.04 |
| COc1cc2c(c(OC)c1OC)-c1c(cc(OC)c(OC)c1OC)CC(C)C(C)C2 (centres undefined) [Schizandrin A] | 1.11 |
| COc1cc(O)cc(CCc2ccc(O)c(OC)c2)c1 [Gigantol] | 0.972 |
| CC(C)/N=c1\cc2n(-c3ccc(Cl)cc3)c3ccccc3nc-2cc1Nc1ccc(Cl)cc1 [Clofazimine] | 1.09 |
| O=C1Cc2cc(CCN3CCN(c4nsc5ccccc45)CC3)c(Cl)cc2N1 [Ziprasidone hydrochloride monohydrate] | 1.1 |
| CCN[C@H]1C[C@H](C)S(=O)(=O)c2sc(S(N)(=O)=O)cc21 [Dorzolamide hydrochloride] | 1.08 |
